The source of these data is article PMC9911399, “Two distinct binding modes provide the RNA-binding protein RbFox with extraordinary sequence specificity”.

To fix the notation:
T1: RBFOX1 RRM RbFoxmut (Fox-RRM*) (Homo sapiens, UniProt Q9NWB1 109-208, R118D;E147R;N151S;E152T)
T1 sequence: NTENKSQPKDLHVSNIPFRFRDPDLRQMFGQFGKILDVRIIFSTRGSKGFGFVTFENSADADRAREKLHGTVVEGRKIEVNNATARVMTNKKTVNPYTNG

B1: CGAGUGC (DNA:RNA)
RNA: GGGAGACCGGAAUUCAGAUUGUCCCGAGUGCUUAAAUCCCGUCGUAGCCACCA
DNA 1: CAATCTGAATTCCGGTCTCCC
DNA 2: TGGTGGCTACGACGGGATT
B2: AUAUGGG (DNA:RNA)
RNA: B1 RNA with C25A, G26U, G28U, U29G, C31G
DNA 1: CAATCTGAATTCCGGTCTCCC
DNA 2: TGGTGGCTACGACGGGATT
B3: AACUUCC (DNA:RNA)
RNA: B1 RNA with C25A, G26A, A27C, G28U, G30C
DNA 1: CAATCTGAATTCCGGTCTCCC
DNA 2: TGGTGGCTACGACGGGATT
B4: GUGAUAG (DNA:RNA)
RNA: B1 RNA with C25G, G26U, A27G, G28A, G30A, C31G
DNA 1: CAATCTGAATTCCGGTCTCCC
DNA 2: TGGTGGCTACGACGGGATT
B5: CCGGUAU (DNA:RNA)
RNA: B1 RNA with G26C, A27G, G30A, C31U
DNA 1: CAATCTGAATTCCGGTCTCCC
DNA 2: TGGTGGCTACGACGGGATT
B6: CACAGAU (DNA:RNA)
RNA: B1 RNA with G26A, A27C, G28A, U29G, G30A, C31U
DNA 1: CAATCTGAATTCCGGTCTCCC
DNA 2: TGGTGGCTACGACGGGATT
B7: AUUAGAA (DNA:RNA)
RNA: GGGAGACCGGAAUUCAGAUUGUCCAUUAGAAUUAAAUCCCGUCGUAGCCACCA
DNA 1: CAATCTGAATTCCGGTCTCCC
DNA 2: TGGTGGCTACGACGGGATT
B8: AUGAACC (DNA:RNA)
RNA: B7 RNA with U27G, G29A, A30C, A31C
DNA 1: CAATCTGAATTCCGGTCTCCC
DNA 2: TGGTGGCTACGACGGGATT
B9: UCGAGGG (DNA:RNA)
RNA: B7 RNA with A25U, U26C, U27G, A30G, A31G
DNA 1: CAATCTGAATTCCGGTCTCCC
DNA 2: TGGTGGCTACGACGGGATT
B10: AAUAGGC (DNA:RNA)
RNA: B7 RNA with U26A, A30G, A31C
DNA 1: CAATCTGAATTCCGGTCTCCC
DNA 2: TGGTGGCTACGACGGGATT
B11: UCUUGGU (DNA:RNA)
RNA: B7 RNA with A25U, U26C, A28U, A30G, A31U
DNA 1: CAATCTGAATTCCGGTCTCCC
DNA 2: TGGTGGCTACGACGGGATT
B12: UGAGACC (DNA:RNA)
RNA: B1 RNA with C25U, U29A, G30C
DNA 1: CAATCTGAATTCCGGTCTCCC
DNA 2: TGGTGGCTACGACGGGATT
B13: CCACAAC (DNA:RNA)
RNA: B1 RNA with G26C, G28C, U29A, G30A
DNA 1: CAATCTGAATTCCGGTCTCCC
DNA 2: TGGTGGCTACGACGGGATT
B14: UGUCGUU (DNA:RNA)
RNA: B7 RNA with A25U, U26G, A28C, A30U, A31U
DNA 1: CAATCTGAATTCCGGTCTCCC
DNA 2: TGGTGGCTACGACGGGATT
B15: ACGGCUG (DNA:RNA)
RNA: B7 RNA with U26C, U27G, A28G, G29C, A30U, A31G
DNA 1: CAATCTGAATTCCGGTCTCCC
DNA 2: TGGTGGCTACGACGGGATT
B16: AUGGACG (DNA:RNA)
RNA: B7 RNA with U27G, A28G, G29A, A30C, A31G
DNA 1: CAATCTGAATTCCGGTCTCCC
DNA 2: TGGTGGCTACGACGGGATT
B17: UUCACGC (DNA:RNA)
RNA: B7 RNA with A25U, U27C, G29C, A30G, A31C
DNA 1: CAATCTGAATTCCGGTCTCCC
DNA 2: TGGTGGCTACGACGGGATT
B18: CUGCCGG (DNA:RNA)
RNA: B1 RNA with G26U, A27G, G28C, U29C, C31G
DNA 1: CAATCTGAATTCCGGTCTCCC
DNA 2: TGGTGGCTACGACGGGATT
B19: AGGACUG (DNA:RNA)
RNA: B7 RNA with U26G, U27G, G29C, A30U, A31G
DNA 1: CAATCTGAATTCCGGTCTCCC
DNA 2: TGGTGGCTACGACGGGATT
B20: CACUUCA (DNA:RNA)
RNA: B1 RNA with G26A, A27C, G28U, G30C, C31A
DNA 1: CAATCTGAATTCCGGTCTCCC
DNA 2: TGGTGGCTACGACGGGATT
B21: AACUCGG (DNA:RNA)
RNA: B7 RNA with U26A, U27C, A28U, G29C, A30G, A31G
DNA 1: CAATCTGAATTCCGGTCTCCC
DNA 2: TGGTGGCTACGACGGGATT
B22: GACACAU (DNA:RNA)
RNA: B7 RNA with A25G, U26A, U27C, G29C, A31U
DNA 1: CAATCTGAATTCCGGTCTCCC
DNA 2: TGGTGGCTACGACGGGATT
B23: UUUACGG (DNA:RNA)
RNA: B7 RNA with A25U, G29C, A30G, A31G
DNA 1: CAATCTGAATTCCGGTCTCCC
DNA 2: TGGTGGCTACGACGGGATT
B24: GAACCCC (DNA:RNA)
RNA: B1 RNA with C25G, G26A, G28C, U29C, G30C
DNA 1: CAATCTGAATTCCGGTCTCCC
DNA 2: TGGTGGCTACGACGGGATT
B25: AACUCUC (DNA:RNA)
RNA: B7 RNA with U26A, U27C, A28U, G29C, A30U, A31C
DNA 1: CAATCTGAATTCCGGTCTCCC
DNA 2: TGGTGGCTACGACGGGATT
B26: GUUGAAA (DNA:RNA)
RNA: B7 RNA with A25G, A28G, G29A
DNA 1: CAATCTGAATTCCGGTCTCCC
DNA 2: TGGTGGCTACGACGGGATT
B27: AGAGCGG (DNA:RNA)
RNA: B1 RNA with C25A, U29C, C31G
DNA 1: CAATCTGAATTCCGGTCTCCC
DNA 2: TGGTGGCTACGACGGGATT
B28: CAAGUGA (DNA:RNA)
RNA: B1 RNA with G26A, C31A
DNA 1: CAATCTGAATTCCGGTCTCCC
DNA 2: TGGTGGCTACGACGGGATT
B29: UAUUGGA (DNA:RNA)
RNA: B7 RNA with A25U, U26A, A28U, A30G
DNA 1: CAATCTGAATTCCGGTCTCCC
DNA 2: TGGTGGCTACGACGGGATT
B30: AUUCCAA (DNA:RNA)
RNA: B7 RNA with A28C, G29C
DNA 1: CAATCTGAATTCCGGTCTCCC
DNA 2: TGGTGGCTACGACGGGATT
B31: AUAUACC (DNA:RNA)
RNA: B7 RNA with U27A, A28U, G29A, A30C, A31C
DNA 1: CAATCTGAATTCCGGTCTCCC
DNA 2: TGGTGGCTACGACGGGATT

Substitutions are numbered along the chain they refer to; changes in the protein carry UniProt numbers. The list shows a part of the results.

The assay deals with T1, RBFOX1 RRM RbFoxmut (Fox-RRM*). In words: EMSA; HiTS-Eq, 1 nM pool, 10 min; buffer printed only for the single-RNA assays: 10 mM Tris pH 7.5, 150 mM NaCl, 3.4 mM EDTA, 0.001% NP-40, 30 C. The note with it: tags: His6 N-terminal (pET28a); label: 5' 32P. In a few lines: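 Purified wild-type or mutant RbFox RRM at increasing concentrations was equilibrated with 1 nM of 5′-radiolabelled RNA carrying 7 randomized nucleotides for 10 min in 50 µL. Unbound RNA was separated by 8% native PAGE and sequenced. Relative association constants came from read-count changes of each RNA species compared with the control reaction, normalised to the cognate motif.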
A general note: Mobility shift assays separate free from complexed probe on a gel.
As to B1, the binding signal is 0.124 KA relative to UGCAUGU.
Consider B2, for which the binding signal is 0.0795 KA relative to UGCAUGU.
Take B3: the binding signal is 0.0641 KA relative to UGCAUGU.
For B4 the value was 0.131 KA relative to UGCAUGU.
Consider B5, for which the binding signal is 0.0722 KA relative to UGCAUGU.
In the case of B6, the binding signal is 0.0737 KA relative to UGCAUGU.
B7: the binding signal was 0.144 KA relative to UGCAUGU.
As for B8, the binding signal was 0.118 KA relative to UGCAUGU.
In the case of B9, the binding signal is 0.0948 KA relative to UGCAUGU.
With B10, the binding signal is 0.0859 KA relative to UGCAUGU.
For the molecule B11, the binding signal was 0.126 KA relative to UGCAUGU.
With B12, the binding signal is 0.0585 KA relative to UGCAUGU.
Take B13: the binding signal was 0.0801 KA relative to UGCAUGU.
B14: the binding signal is 0.0883 KA relative to UGCAUGU.
Turning to B15, the binding signal was 0.165 KA relative to UGCAUGU.
In the case of B16 it was 0.094 KA relative to UGCAUGU; in that of B17, 0.0823 KA relative to UGCAUGU; in that of B18, 0.0599 KA relative to UGCAUGU.
In the case of B19, the binding signal was 0.256 KA relative to UGCAUGU.
In the case of B20, the binding signal was 0.116 KA relative to UGCAUGU.
Regarding B21, the binding signal is 0.069 KA relative to UGCAUGU.
B22: the binding signal was 0.0778 KA relative to UGCAUGU.
As to B23, the binding signal was 0.067 KA relative to UGCAUGU.
Regarding B24, the binding signal was 0.0341 KA relative to UGCAUGU.
As for B25, the binding signal was 0.0312 KA relative to UGCAUGU.
With B26, the binding signal is 0.0929 KA relative to UGCAUGU.
For B27 the value was 0.0765 KA relative to UGCAUGU.
Consider B28, for which the binding signal was 0.0955 KA relative to UGCAUGU.
Turning to B29, the binding signal is 0.0512 KA relative to UGCAUGU.
For B30, the binding signal is 0.0801 KA relative to UGCAUGU.
Consider B31, for which the binding signal is 0.11 KA relative to UGCAUGU.
